Laboratory results: a collection of fitness landscapes (doi:10.1016/j.celrep.2020.107928)
The full ranking holds about 81,000 sequences; the median of “one-hybrid fitness for binding parS DNA” is about -0.17, and the highest 2% start at about 0.51. Some of the results follow.

B1: Caulobacter ParB omega fusion; a variant is named by its letters at X, in order, B8GW30 (parent)
chain: MESVVVGEPGMSEGRRGLGRGLSALLGEVDAAPAQAPGEQLGGSREAPIEILQRNPDQPRRTFREEDLEDLSNSIREKGVLQPILVRPSPDTAGEYQIVAGERAWRAAQRAGLKTVPIMVRELDDLAVLEIGIIENVQRADLNVLEEALSYKVLMEKFERTQENIAQTIGKSXSHVANXMRLLXLPDEVQSYLVSGELTAXHARAIAAAADPVALAKQIIEGGLSVRETEALARKAPNLSAGKSKGGRPPRVKDTDTQALESDLSSVLGLDVSIDHRGSTGTLTITYATLEQLDDLCNRLTRGI

Variants of: B1
Test: one-hybrid fitness for binding parS DNA (scaled: cognate 1, non-cognate 0); higher = stronger binding
Details: with parS DNA site
How it was run: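 In E. coli USO, a HIS3 reporter with its site placed 19 bp from the promoter was used to select Caulobacter ParB variants randomised at four specificity codons. Growth lasted 48 hours at 37°C on histidine-free M9 containing 0.1 mM IPTG and 5 mM 3-AT. Fitness was taken as the log change in variant-to-wild-type read ratio from Illumina sequencing of pre- and post-selection plasmids, rescaled between the non-cognate and cognate sites.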

| Variant | one-hybrid fitness for binding parS DNA |
| --- | --- |
| GYRG | ≤ 0.2 |
| GDAD | ≤ 0.2 |
| FHST | ≤ 0.2 |
| EWHR | ≤ 0.2 |
| FMNM | ≤ 0.2 |
| RPRQ | ≤ 0.2 |
| GEFG | ≤ 0.2 |
| QGSK | ≤ 0.2 |
| PQKP | ≤ 0.2 |
| EKTL | ≤ 0.2 |
| YPWR | ≤ 0.2 |
| SVEE | ≤ 0.2 |
| MIYW | ≤ 0.2 |
| ECHV | ≤ 0.2 |
| LPKF | ≤ 0.2 |
| IACN | ≤ 0.2 |
| WNLY | ≤ 0.2 |
| ADVN | ≤ 0.2 |
| QVQC | ≤ 0.2 |
| ATAG | ≤ 0.2 |
| PRQA | ≤ 0.2 |
| LRPL | ≤ 0.2 |
| VFVQ | ≤ 0.2 |
| GPQK | ≤ 0.2 |
| TEYY | ≤ 0.2 |
| FCIV | ≤ 0.2 |

| Variant | one-hybrid fitness for binding parS DNA |
| --- | --- |
| NCSD | ≤ 0.2 |
| MAIA | ≤ 0.2 |
| ERSS | ≤ 0.2 |
| ATKI | ≤ 0.2 |
| THFE | ≤ 0.2 |
| PPTG | ≤ 0.2 |
| YYER | ≤ 0.2 |
| WKER | ≤ 0.2 |
| RGKT | 0.712 |
| WQTA | ≤ 0.2 |
| GCMC | ≤ 0.2 |
| LGKY | ≤ 0.2 |
| FMVG | ≤ 0.2 |
| NYTW | ≤ 0.2 |
| CSDA | ≤ 0.2 |
| LKVQ | ≤ 0.2 |
| YSPL | ≤ 0.2 |
| LDRY | ≤ 0.2 |
| DCIG | ≤ 0.2 |
| MLCF | ≤ 0.2 |
| FNDL | ≤ 0.2 |
| LCWT | ≤ 0.2 |
| AMCR | ≤ 0.2 |
| TTQL | ≤ 0.2 |
| YMFG | ≤ 0.2 |
| RNQT | 0.74 |

| Variant | one-hybrid fitness for binding parS DNA |
| --- | --- |
| YQQG | ≤ 0.2 |
| VRRY | ≤ 0.2 |
| MEYT | ≤ 0.2 |
| DAKG | ≤ 0.2 |
| LRWC | ≤ 0.2 |
| IGPM | ≤ 0.2 |
| PPPD | ≤ 0.2 |
| SNGQ | ≤ 0.2 |
| RINY | 0.513 |
| TRPC | ≤ 0.2 |
| QNRL | ≤ 0.2 |
| KIRC | ≤ 0.2 |
| KRHW | ≤ 0.2 |
| SMKH | ≤ 0.2 |
| GTVD | ≤ 0.2 |
| HERS | ≤ 0.2 |
| AIIY | ≤ 0.2 |
| EMMY | ≤ 0.2 |
| VTFS | ≤ 0.2 |
| GACL | ≤ 0.2 |
| RTLD | ≤ 0.2 |
| IHWG | ≤ 0.2 |
| AALQ | ≤ 0.2 |
| KIAS | ≤ 0.2 |
| PFTC | ≤ 0.2 |
| QCCD | ≤ 0.2 |

| Variant | one-hybrid fitness for binding parS DNA |
| --- | --- |
| NTMA | ≤ 0.2 |
| AINV | ≤ 0.2 |
| GHAI | ≤ 0.2 |
| HVGR | ≤ 0.2 |
| RIGP | ≤ 0.2 |
| VSHL | ≤ 0.2 |
| TDCT | ≤ 0.2 |
| QENS | ≤ 0.2 |
| LVMG | ≤ 0.2 |
| YPLR | ≤ 0.2 |
| GVVG | ≤ 0.2 |
| RKYC | 0.925 |
| YTRI | ≤ 0.2 |
| EIVG | ≤ 0.2 |
| DRKI | ≤ 0.2 |
| TKAL | ≤ 0.2 |
| FFTW | ≤ 0.2 |
| SAKT | ≤ 0.2 |
| YMPP | ≤ 0.2 |
| KFLS | ≤ 0.2 |
| APKF | ≤ 0.2 |
| PELY | ≤ 0.2 |
| YICS | ≤ 0.2 |
| MYRR | ≤ 0.2 |
| KAGG | ≤ 0.2 |
| TTTV | ≤ 0.2 |

| Variant | one-hybrid fitness for binding parS DNA |
| --- | --- |
| SFTM | ≤ 0.2 |
| HHAG | ≤ 0.2 |
| FTNK | ≤ 0.2 |
| DYES | ≤ 0.2 |
| EVDN | ≤ 0.2 |
| TRVH | ≤ 0.2 |
| NGSK | ≤ 0.2 |
| NNWR | ≤ 0.2 |
| CTSF | ≤ 0.2 |
| DYET | ≤ 0.2 |
| WFGY | ≤ 0.2 |
| HWPR | ≤ 0.2 |
| YVLV | ≤ 0.2 |
| CHPG | ≤ 0.2 |
| DDSM | ≤ 0.2 |
| NLEL | ≤ 0.2 |
| YSHW | ≤ 0.2 |
| QTSK | ≤ 0.2 |
| PECW | ≤ 0.2 |
| KGWF | ≤ 0.2 |
| PRNS | ≤ 0.2 |
| KKEP | ≤ 0.2 |
| GWWE | ≤ 0.2 |
| TAQE | ≤ 0.2 |
| NTLI | ≤ 0.2 |
| RFRT | 0.9 |

| Variant | one-hybrid fitness for binding parS DNA |
| --- | --- |
| TRMQ | ≤ 0.2 |
| VSWR | ≤ 0.2 |
| CNER | ≤ 0.2 |
| NRST | ≤ 0.2 |
| VRAH | ≤ 0.2 |
| VVNG | ≤ 0.2 |
| NHKT | ≤ 0.2 |
| DAYD | ≤ 0.2 |
| SAIK | ≤ 0.2 |
| HLVS | ≤ 0.2 |
| YTPI | ≤ 0.2 |
| AAER | ≤ 0.2 |
| MIIR | ≤ 0.2 |
| MIYR | ≤ 0.2 |
| SARS | ≤ 0.2 |
| SFTE | ≤ 0.2 |
| KQSR | ≤ 0.2 |
| CLGL | ≤ 0.2 |
| RRTW | ≤ 0.2 |
| LKHY | ≤ 0.2 |
| VEEG | ≤ 0.2 |
| KRTV | ≤ 0.2 |
| QYIR | ≤ 0.2 |
